These results are taken from the supplement of paper PMC12217912.

Sequences and labels used below:
B1: TEV protease; numbered along this chain (parent)
chain: MGESLFKGPRDYNPISSSICHLTNESDGHTTSLYGIGFGPFIITNKHLFRRNNGTLVVQSLHGVFKVKDTTTLQQHLVDGRDMIIIRMPKDFPPFPQKLKFREPQREERICLVTTNFQTKSMSSMVSDTSCTFPSGDGIFWKHWIQTKDGQCGSPLVSTRDGFIVGIHSASNFTNTNNYFTSVPKNFMELLTNQEAQQWVSGWRLNADSVLWGGHKVFMVKPEEPFQPVKEATQL

In the assay the parent is B1. As to the kind of experiment: raw area under fraction-flipped curve 0-4 h after induction (AUC4h, not background-subtracted), DNA-recorder readout of cleavage of the substrate (dimensionless); higher = more cleavage of the substrate by the protease variant. The conditions noted are these: temperature: 34 °C; time window: 0-4 h after rhamnose induction. The method, then:
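In vivo DNA recorder in E. coli TOP10(DE3) ΔrhaA at 34 °C. Each TEVp single-site mutant (parent TEVp 0) is paired with a single-site variant of the 7-mer TEVs (canonical ENLYFQ|S). The substrate sits between flexible linkers in a Bxb1-sfGFP-TEVs-SsrA fusion, so cleavage stabilises Bxb1 and speeds flipping of a recombination array, read by NGS. The value is the raw area under the fraction-flipped curve over 0-4 h after rhamnose induction (AUC4h), with ≥20 reads per time point. It is not background-subtracted; inactive controls average about 0.047.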

The other results are listed elsewhere or left out. The full chains were built here from the parent and the listed change. Values near 0.05 are background.
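Also: Bxb1 expression induced with 0.2% (w/v) L-rhamnose at OD600 near 0.5, cultures sampled hourly, flipped fraction per protease–substrate barcode pair counted by paired-end Illumina sequencing.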

Take MGESLFKGPRDYNPISSSICHLTNESDGHTTSLYGIGFGPFIITNKHLFRRNNGTLVVQSLHGVFKVMDTTTLQQHLVDGRDMIIIRMPKDFPPFPQKLKFREPQREERICLVTTNFQTKSMSSMVSDTSCTFPSGDGIFWKHWIQTKDGQCGSPLVSTRDGFIVGIHSASNFTNTNNYFTSVPKNFMELLTNQEAQQWVSGWRLNADSVLWGGHKVFMVKPEEPFQPVKEATQL [K68M]: the “area with substrate ENLYFQC” value came out at 0.0903, the “area with substrate ENLYFQF” value came to 0.0906, the “area with substrate ENLYFQG” value came out at 0.106 and the “area with substrate ENLYFQI” value was determined as 0.0528. The “area with substrate ENLYFQL” value was determined as 0.0541, the “area with substrate ENLYFQM” value worked out at 0.102, the “area with substrate ENLYFQN” value amounted to 0.053 and the “area with substrate ENLYFQP” value turned out to be 0.0577. Moreover, the “area with substrate ENLYFQQ” value is 0.0805, the “area with substrate ENLYFQR” value came out at 0.0656, the “area with substrate ENLYFQS” value was 0.0986 and the “area with substrate ENLYFQV” value stood at 0.0636. Moreover, the “area with substrate ENLYFQW” value worked out at 0.0567 and the “area with substrate ENLYFQY” value was 0.0772.
For MGESLFKGPRDYNPISSSICHLTNESDGHTTSLYGIGFGPFIITNKHLFRRNNGTLVVQSLHGVFKVKDTTTLQQHMVDGRDMIIIRMPKDFPPFPQKLKFREPQREERICLVTTNFQTKSMSSMVSDTSCTFPSGDGIFWKHWIQTKDGQCGSPLVSTRDGFIVGIHSASNFTNTNNYFTSVPKNFMELLTNQEAQQWVSGWRLNADSVLWGGHKVFMVKPEEPFQPVKEATQL [L77M], the “area with substrate ENLYFQC” value was found to be 0.0756, the “area with substrate ENLYFQE” value was 0.0652, the “area with substrate ENLYFQI” value was found to be 0.0564 and the “area with substrate ENLYFQK” value stood at 0.0678. In addition, the “area with substrate ENLYFQL” value was 0.0724, the “area with substrate ENLYFQM” value was determined as 0.064, the “area with substrate ENLYFQR” value stood at 0.0626 and the “area with substrate ENLYFQS” value was found to be 0.073. Further, the “area with substrate ENLYFQT” value was determined as 0.0755, the “area with substrate ENLYFQV” value is 0.0468 and the “area with substrate ENLYFQW” value turned out to be 0.0572.
Consider MGESLFKGPRDYNPISSSICHLTNESDGHTTSLYGIGFGPFIITNKHLFRRNNGTLVVQSLHGVFKVKDTTTLQQHLVDGRDMIIIWMPKDFPPFPQKLKFREPQREERICLVTTNFQTKSMSSMVSDTSCTFPSGDGIFWKHWIQTKDGQCGSPLVSTRDGFIVGIHSASNFTNTNNYFTSVPKNFMELLTNQEAQQWVSGWRLNADSVLWGGHKVFMVKPEEPFQPVKEATQL [R87W], for which the “area with substrate ENLYFQC” value turned out to be 0.121, the “area with substrate ENLYFQG” value is 0.0872, the “area with substrate ENLYFQH” value was 0.0843 and the “area with substrate ENLYFQI” value came out at 0.0638. Besides, the “area with substrate ENLYFQL” value came to 0.0539, the “area with substrate ENLYFQM” value is 0.0831, the “area with substrate ENLYFQP” value was determined as 0.0645 and the “area with substrate ENLYFQS” value was found to be 0.0934. The “area with substrate ENLYFQW” value stood at 0.0901.
Turning to MGESLFKGPRDYNPISSSICHLTNESDGHTTSLYGIGFGPFIITNKHLFRRNNGTLVVQSLHGVFKVKDTTTLQQHLVDGRDMIIIRMPKDFPPFPQKLKFREPQREERICLVTTNFQTKSMSSMVSDTSCTFPSGDGIFWKHWIQTKDGQCGSPLVSTRDGFIVGIHSASNFTNTNNYQTSVPKNFMELLTNQEAQQWVSGWRLNADSVLWGGHKVFMVKPEEPFQPVKEATQL [F180Q], the “area with substrate ENLYFQC” value turned out to be 0.0283, the “area with substrate ENLYFQL” value was 0.0512, the “area with substrate ENLYFQN” value was 0.0347 and the “area with substrate ENLYFQR” value was 0.0617. For the same variant, the “area with substrate ENLYFQS” value was determined as 0.0597.
Regarding MGESLFKGPRDYNPISSSICHLTNESDGHTTSLYGIGFGPFIITNKHLFRRNNGTLVVQSLHGVFKVKDTTTLQQHLVDGRDMIIIRMPKDFPPFPQKLKFREPQREERICLVTTNFQTKSMSSMVSDTSCTFPSGDGIFWKHWIQTKDGQCGSPLVSTRDGFIVGIHSASNFTNTNNYFTSVPKNFMESLTNQEAQQWVSGWRLNADSVLWGGHKVFMVKPEEPFQPVKEATQL [L190S], the “area with substrate ENLYFQC” value was 0.0987, the “area with substrate ENLYFQD” value was 0.0571, the “area with substrate ENLYFQF” value came to 0.0964 and the “area with substrate ENLYFQG” value stood at 0.109. Also, the “area with substrate ENLYFQH” value worked out at 0.0526, the “area with substrate ENLYFQI” value stood at 0.0464, the “area with substrate ENLYFQN” value was 0.0716 and the “area with substrate ENLYFQR” value turned out to be 0.0111. Moreover, the “area with substrate ENLYFQS” value turned out to be 0.0897, the “area with substrate ENLYFQT” value is 0.0796 and the “area with substrate ENLYFQV” value came out at 0.0749.
For MGESLFKGPRDYNPISSSICHLTNESDGHTTSLYGIGFGPFIITNKHLFRRNNGTLVVQSLHGVFKVKDTTTLQQHLVDGRDMIIIRMPKDFPPFGQKLKFREPQREERICLVTTNFQTKSMSSMVSDTSCTFPSGDGIFWKHWIQTKDGQCGSPLVSTRDGFIVGIHSASNFTNTNNYFTSVPKNFMELLTNQEAQQWVSGWRLNADSVLWGGHKVFMVKPEEPFQPVKEATQL [P96G], the “area with substrate ENLYFQC” value worked out at 0.127, the “area with substrate ENLYFQE” value is 0.0386, the “area with substrate ENLYFQH” value turned out to be 0.0786 and the “area with substrate ENLYFQN” value was 0.0627. Besides, the “area with substrate ENLYFQS” value amounted to 0.103 and the “area with substrate ENLYFQY” value came out at 0.0859.
On to MGESLFKGPRDYNPISSSICHLTNESDGHTTSLYGIGFGPFIITNKHLFRRNNGTLVVQSLHGVFKVKDTTTLQQHLVDGRDMIIIRMPKDFPPFPQKLKFREPQREERICLVTTNFQTKSMSSMVSDTSCTFPSGDGIFWKHWIQTKDGQCGSPLVSTRDGFIVGIHSASNFTNTNNYFTSVPKNFMELLTNQEAQQWVSGWRANADSVLWGGHKVFMVKPEEPFQPVKEATQL [L205A], for which the “area with substrate ENLYFQC” value was determined as 0.0803, the “area with substrate ENLYFQH” value was found to be 0.062, the “area with substrate ENLYFQI” value was 0.0614 and the “area with substrate ENLYFQK” value was 0.0747. The “area with substrate ENLYFQL” value came out at 0.0466, the “area with substrate ENLYFQN” value is 0.0547, the “area with substrate ENLYFQS” value turned out to be 0.0856 and the “area with substrate ENLYFQT” value turned out to be 0.0674. Further, the “area with substrate ENLYFQV” value was determined as 0.0837 and the “area with substrate ENLYFQW” value is 0.0682.
MGESLFKGPRDYNPISSSICHLTNESDGHTTSLYGIGFGPFIITNKHLFRRNNGTLVVQSLHGVFKVKDTTTLQQHLVDGRDMIIIRMPKDFPPFPQKLKFREQQREERICLVTTNFQTKSMSSMVSDTSCTFPSGDGIFWKHWIQTKDGQCGSPLVSTRDGFIVGIHSASNFTNTNNYFTSVPKNFMELLTNQEAQQWVSGWRLNADSVLWGGHKVFMVKPEEPFQPVKEATQL [P104Q]: the “area with substrate ENLYFQC” value turned out to be 0.0448, the “area with substrate ENLYFQD” value came to 0.0457, the “area with substrate ENLYFQP” value came to 0.0591 and the “area with substrate ENLYFQR” value is 0.0411. Also, the “area with substrate ENLYFQS” value amounted to 0.0491 and the “area with substrate ENLYFQW” value amounted to 0.035.
Regarding MGESLFKGPRDYNPISSSICHLTNESDGHTTSLYGIGFGPFIITNKHLFRRNNGTLVVQSLHGVFKVKDTTTLQQHLVDGRDMIIIRMPKDFPPFPQKLKFREPQREERICLVTTNFQTKSMSSMVSDTSCTFPSGDGIFVKHWIQTKDGQCGSPLVSTRDGFIVGIHSASNFTNTNNYFTSVPKNFMELLTNQEAQQWVSGWRLNADSVLWGGHKVFMVKPEEPFQPVKEATQL [W141V], the “area with substrate ENLYFQC” value was 0.064, the “area with substrate ENLYFQD” value was 0.0643, the “area with substrate ENLYFQG” value is 0.132 and the “area with substrate ENLYFQI” value was determined as 0.106. Moreover, the “area with substrate ENLYFQL” value came to 0.056, the “area with substrate ENLYFQM” value is 0.0538, the “area with substrate ENLYFQN” value was found to be 0.061 and the “area with substrate ENLYFQR” value was 0.0524. In addition, the “area with substrate ENLYFQS” value is 0.0679, the “area with substrate ENLYFQT” value was 0.0489, the “area with substrate ENLYFQW” value came to 0.0667 and the “area with substrate ENLYFQY” value was 0.0297.
Consider MGESLFKGPRDYNPISSSICHLTNESDGHTTSLYGIGFGPFIITNKHLFRRNNGTLVVQSLHGVFKVKDTTTLQQHLVDGRDMIIIRMPKDFPPFPQKLKFREPQREERICLVTTNFQTKSMSSMVSDTSCTFPSGDGIFYKHWIQTKDGQCGSPLVSTRDGFIVGIHSASNFTNTNNYFTSVPKNFMELLTNQEAQQWVSGWRLNADSVLWGGHKVFMVKPEEPFQPVKEATQL [W141Y], for which the “area with substrate ENLYFQC” value is 0.132, the “area with substrate ENLYFQK” value came to 0.0673, the “area with substrate ENLYFQL” value came out at 0.0458 and the “area with substrate ENLYFQM” value amounted to 0.0694. The “area with substrate ENLYFQN” value turned out to be 0.0692 and the “area with substrate ENLYFQS” value was 0.0882.
Take MGESLFKGPRDYNPISSSICHLTNESDGHTTSLYGIGFGPFIITNDHLFRRNNGTLVVQSLHGVFKVKDTTTLQQHLVDGRDMIIIRMPKDFPPFPQKLKFREPQREERICLVTTNFQTKSMSSMVSDTSCTFPSGDGIFWKHWIQTKDGQCGSPLVSTRDGFIVGIHSASNFTNTNNYFTSVPKNFMELLTNQEAQQWVSGWRLNADSVLWGGHKVFMVKPEEPFQPVKEATQL [K46D]: the “area with substrate ENLYFQC” value worked out at 0.0632, the “area with substrate ENLYFQD” value came to 0.0447, the “area with substrate ENLYFQF” value is 0.0454 and the “area with substrate ENLYFQG” value is 0.0585. Besides, the “area with substrate ENLYFQH” value was found to be 0.0545, the “area with substrate ENLYFQI” value was 0.0592, the “area with substrate ENLYFQL” value was determined as 0.0531 and the “area with substrate ENLYFQM” value turned out to be 0.0549. Also, the “area with substrate ENLYFQR” value stood at 0.0699, the “area with substrate ENLYFQS” value came out at 0.0586, the “area with substrate ENLYFQT” value stood at 0.0623 and the “area with substrate ENLYFQV” value is 0.0675. Further, the “area with substrate ENLYFQY” value was found to be 0.0563.
